Data from PubChem BioAssay.
The inconclusive results got no clear call from the source; some entries with a clear call stand among them for comparison. Activity calls are given as the source filed them.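 How the source made its calls: active means thallium flux slope beyond 3 SD from same-plate DMSO control mean in most replicates, usually higher, sometimes lower; inconclusive means repeat tests gave conflicting results; inactive means no significant difference from controls in most replicates.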

Biological target: Solute carrier family 12 member 5 (Homo sapiens) (UniProt Q9H2X9)
Assay: modulation of KCC2 thallium flux in HEK cells – cell-based, ouabain, retest, confirmation (AID 1717);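 further: slope of initial-normalized fluorescence between seconds 10 and 20 after thallium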
Conditions: HEK293-KCC2, thallium flux FluoZin2 fluorescence, at 10 µM, bidirectional: low = inhibitor, high = activator

Chain of UniProt Q9H2X9 (Q9H2X9 whole entry, looked up): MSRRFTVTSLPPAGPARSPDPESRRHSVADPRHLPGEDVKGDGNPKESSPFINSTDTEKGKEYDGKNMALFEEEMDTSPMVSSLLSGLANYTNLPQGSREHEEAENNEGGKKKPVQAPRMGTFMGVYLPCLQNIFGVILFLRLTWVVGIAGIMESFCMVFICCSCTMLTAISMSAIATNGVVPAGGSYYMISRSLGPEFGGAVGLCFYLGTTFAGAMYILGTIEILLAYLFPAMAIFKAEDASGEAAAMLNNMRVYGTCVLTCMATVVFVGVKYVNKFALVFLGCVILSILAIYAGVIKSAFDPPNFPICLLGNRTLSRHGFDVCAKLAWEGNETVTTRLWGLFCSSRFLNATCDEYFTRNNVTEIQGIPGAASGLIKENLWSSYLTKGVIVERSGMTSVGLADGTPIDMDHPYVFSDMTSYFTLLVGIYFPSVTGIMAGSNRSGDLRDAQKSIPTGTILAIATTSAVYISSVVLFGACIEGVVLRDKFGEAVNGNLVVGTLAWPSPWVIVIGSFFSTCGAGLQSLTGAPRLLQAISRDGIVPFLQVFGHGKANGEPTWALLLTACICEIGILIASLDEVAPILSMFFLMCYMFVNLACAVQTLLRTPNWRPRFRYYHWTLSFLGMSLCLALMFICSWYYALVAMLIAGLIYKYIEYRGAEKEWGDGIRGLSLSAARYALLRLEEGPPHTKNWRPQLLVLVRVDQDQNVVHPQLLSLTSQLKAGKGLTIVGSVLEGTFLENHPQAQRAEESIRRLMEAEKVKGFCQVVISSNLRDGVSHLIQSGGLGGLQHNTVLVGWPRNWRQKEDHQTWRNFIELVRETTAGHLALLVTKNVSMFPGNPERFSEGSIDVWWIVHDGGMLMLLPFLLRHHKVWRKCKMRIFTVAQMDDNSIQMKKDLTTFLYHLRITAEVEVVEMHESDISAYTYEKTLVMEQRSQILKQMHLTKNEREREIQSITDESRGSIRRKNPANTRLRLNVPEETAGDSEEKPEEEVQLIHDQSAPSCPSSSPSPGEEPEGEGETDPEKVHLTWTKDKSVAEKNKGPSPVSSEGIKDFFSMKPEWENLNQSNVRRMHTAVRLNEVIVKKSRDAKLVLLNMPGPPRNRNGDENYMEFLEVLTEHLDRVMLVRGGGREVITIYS

| Compound | raw Tl+ flux slope (below DMSO = inhibition, above = activation) |
| --- | --- |
| Cc1cc(C(C)(C)C)ccc1OCCN1CCCC1 | inactive: 0.0204 |
| Cc1cc(C(=O)NNC(=O)c2cccc(Cl)c2)no1 | inconclusive: 0.024 |
| N#C/C(=C\c1ccc(-c2cccc([N+](=O)[O-])c2)o1)C(=O)Nc1nc(-c2cccs2)cs1 | inconclusive: 0.0222 |
| CCOC(=O)c1c(C(C)(C)C)oc2ccc(O)cc12 | inconclusive: 0.0189 |
| O=C1C(Cl)=C(Nc2ccccc2)C(=O)c2ccccc21 | inactive: 0.0222 |
| CN(CCO)c1cc(Sc2nc3ccccc3s2)c2nonc2c1[N+](=O)[O-] | inconclusive: 0.0236 |
| O=C(Nc1cccnc1)c1ccc(COc2ccccc2Br)o1 | inconclusive: 0.0144 |
| S=C(Nc1ccccc1)c1nc2ccccc2s1 | inconclusive: 0.0235 |
| N#Cc1c2n(c3c(=S)nc[nH]c13)CCCCC2 | inconclusive: 0.0226 |
| COC(=O)c1sccc1NC(=O)CCC1CCCC1 | inactive: 0.0186 |
| Cc1[nH]c2ccccc2c1/C=C/c1nc2ccccc2c(=O)n1CCO | inconclusive: 0.0172 |
| Cc1ccccc1NC(=S)N/N=C/C(C)c1ccccc1 (stereo unspecified) | inconclusive: 0.0267 |
| S=C(Nc1ccccc1)Nc1nc2ccccc2n1CCOc1ccc(Br)cc1 | inactive: 0.0228 |
| C=CCNC(=O)C1CCN(c2c([N+](=O)[O-])cc(C(F)(F)F)cc2[N+](=O)[O-])CC1 | inactive: 0.0297 |
| S=C1NC2(CCCCC2)N=C1c1ccccc1 | inconclusive: 0.0322 |
| CN(C(=O)CSc1nc2cc([N+](=O)[O-])ccc2n1-c1ccc(F)cc1)C1CCS(=O)(=O)C1 (stereo unspecified) | inconclusive: 0.0261 |
